{
  "source": "PubChem BioAssay AID624173",
  "about": "(National Center for Advancing Translational Sciences (NCATS), 2012)",
  "note": "Among all 410,000 compounds or so, about 490 (0.12%) were called active. The shares of active, inactive and inconclusive entries below differ from those in the screen. The call rests on the fitted dose curve; in most records, active means well fitted inhibition curve with a large enough effect; inconclusive means small, poorly fitted or top-dose-only effect; inactive means flat fitted curve, though single readings scatter. A potency beside an inconclusive call is a rough fit, not a confirmed value. Potency means the concentration at half of the fitted maximal effect; tags describe the fitted curve by direction and shape.",
  "data": [
    {"target": "pyruvate kinase (Trypanosoma brucei) (UniProt Q57TT1)", "test": "qHTS of Trypanosoma Brucei Inhibitors; further: nearly all actives have a fitted effect of over 50% in size", "settings": "TbPYK enzyme, Kinase-Glo Plus ATP luminescence, 45 min; series mostly up to 76.8 µM", "method_in_brief": "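Enzyme and substrate buffer are dispensed first and compound is pin-transferred. ADP at 130 uM final then starts the reaction, which runs 45 min at room temperature. Detection reagent is added for 10 min before luminescence is imaged.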", "values": [
      {"molecule": "C=CCNC(=S)NNC(=O)COc1c(Cl)cc(Cl)cc1Cl", "Potency": "inconclusive: 35.5 µM [inhibitor, partial curve, poor fit]"},
      {"molecule": "Cc1nc([N+](=O)[O-])nn1C12CC3CC(CC(Br)(C3)C1)C2", "Potency": "inconclusive: 35.5 µM [inhibitor, partial curve, poor fit]"},
      {"molecule": "O=C(NCc1n[nH]c(=S)n1-c1ccc(F)cc1)c1ccco1", "Potency": "inconclusive: 17.8 µM [inhibitor, partial curve, poor fit]"},
      {"molecule": "Cc1ccccc1NC(=O)c1ccco1", "Potency": "inactive"},
      {"molecule": "COc1cc(-c2n[nH]c(=S)n2/N=C/c2cccn2C)cc(OC)c1OC", "Potency": "inconclusive: 2.82 µM [inhibitor, full curve, poor fit]"},
      {"molecule": "CC(C)c1ccc(S(=O)(=O)/N=C2/C=C(Sc3ncn[nH]3)C(=O)c3ccccc32)cc1", "Potency": "active: 14.1 µM"},
      {"molecule": "COc1cc(O)c(C=NN2C(=O)CSC2=S)c(OC)c1", "Potency": "inconclusive: 8.91 µM [inhibitor, partial curve]"},
      {"molecule": "O=C(CSc1nc(=O)[nH]c2c1CCCC2)Nc1ccccc1C(F)(F)F", "Potency": "inactive"},
      {"molecule": "CCCOCC(O)CCc1n[nH]c(=S)n1-c1ccccc1", "note": "(stereo not drawn)", "Potency": "inconclusive: 8.91 µM [inhibitor, partial curve, poor fit]"},
      {"molecule": "O=C1CCCC2=C1C(c1ccc(Br)cc1)c1c([nH]c(=S)[nH]c1=O)N2", "note": "(stereo not drawn)", "Potency": "inactive"},
      {"molecule": "COC(=O)c1sccc1NC(=O)Nc1ccc(F)cc1", "Potency": "inconclusive: 31.6 µM [inhibitor, partial curve]"},
      {"molecule": "CCNC(=O)Cn1c(-c2cccs2)cc2ccccc21", "Potency": "inactive"},
      {"molecule": "Cc1nn(C)cc1/C=N/NC(=S)Nc1ccccc1", "Potency": "inconclusive: 20 µM [inhibitor, partial curve, poor fit]"},
      {"molecule": "Cc1nc(S/C(=C\\c2ccc(-c3ccc(C(=O)O)c(Cl)c3)o2)C(=O)O)n[nH]1", "Potency": "inconclusive: 12.6 µM [inhibitor, partial curve]"},
      {"molecule": "O=C1N/C(=C\\c2ccc(O)cc2)C(=O)c2ccccc21", "Potency": "inconclusive: 20 µM [inhibitor, partial curve, poor fit]"},
      {"molecule": "O=C(O)c1c(Cl)c(Cl)c(Cl)c(Cl)c1-c1c2cc(I)c(=O)c(I)c-2oc2c(I)c(O)c(I)cc12", "Potency": "inconclusive: 31.6 µM [inhibitor, partial curve, poor fit]"},
      {"molecule": "Cc1ccnc(Nc2nc(-c3ccc(O)c(O)c3)cs2)c1", "Potency": "inactive"},
      {"molecule": "COc1cccc(NC(=O)CN(c2cccc(OC)c2)S(C)(=O)=O)c1", "Potency": "inactive"},
      {"molecule": "COc1ccc(CC(=O)Nc2sc3c(c2C(N)=O)CCCC3)cc1", "Potency": "inactive"},
      {"molecule": "Cn1c(=O)c2c(nc(SCC(=O)O)n2Cc2cccc(C(F)(F)F)c2)n(C)c1=O", "Potency": "inconclusive: 22.4 µM [inhibitor, partial curve, poor fit]"},
      {"molecule": "CCN(CC)S(=O)(=O)c1ccc(NC2c3ncccc3C(=O)N2Cc2ccccc2)cc1", "note": "(stereo not drawn)", "Potency": "inconclusive: 20 µM [inhibitor, partial curve, poor fit]"},
      {"molecule": "O=C(CSCc1ccccc1Br)NNC(=S)NCc1ccco1", "Potency": "inconclusive: 39.8 µM [inhibitor, partial curve, poor fit]"},
      {"molecule": "Cc1cc(Br)cn2c(Cc3ccsc3)c(-c3ccco3)nc12", "Potency": "inconclusive: 35.5 µM [inhibitor, single point]"},
      {"molecule": "O=C(O)c1cc(-c2ccc(-c3ccc(F)cc3)o2)nc2ccccc12", "Potency": "inconclusive: 25.1 µM [inhibitor, partial curve, poor fit]"},
      {"molecule": "CC(=O)C1=C(S(=O)(=O)c2ccc(C)cc2)CS(=O)(=O)C1", "Potency": "inconclusive: 11.2 µM [inhibitor, partial curve, poor fit]"},
      {"molecule": "O=C(CF)NC(NC(=S)Nc1ccccc1O)C(Cl)(Cl)Cl", "note": "(stereo not drawn)", "Potency": "inactive"},
      {"molecule": "CCN(CC)c1ncnc2ccc(Br)cc12", "Potency": "inconclusive: 31.6 µM [inhibitor, single point]"},
      {"molecule": "CCOC(=O)c1ccc(NC(=O)NCc2ccc(OC)cc2)cc1", "Potency": "inactive"},
      {"molecule": "Cn1cccc1/C=N/n1c(-c2ccc(Cl)cc2Cl)n[nH]c1=S", "Potency": "inconclusive: 14.1 µM [inhibitor, partial curve, poor fit]"},
      {"molecule": "COc1ccc(C(Nc2ccccn2)c2oc(CO)cc(=O)c2O)cc1", "note": "(stereo not drawn)", "Potency": "inconclusive: 7.94 µM [inhibitor, partial curve]"},
      {"molecule": "COc1ccc(-c2cnc3c(NC(C)=O)cc(-c4cccc(C(=O)N(C)C)c4)cn23)cc1OC", "Potency": "inactive"},
      {"molecule": "c1ccc(C[C@H]2CN=C(Nc3ccccc3)N2CCCC2CCCCC2)cc1", "Potency": "inactive"},
      {"molecule": "CCCCN(C)S(=O)(=O)c1ccc(C(=O)Nc2ccc(-c3nc4ccc(C)cc4s3)cc2)cc1", "Potency": "inactive"},
      {"molecule": "O=C(COc1ccc2ccccc2c1Br)N1CCCCC1", "Potency": "inconclusive: 35.5 µM [inhibitor, partial curve, poor fit]"},
      {"molecule": "Cc1cccc(-n2c(-c3ccoc3C)n[nH]c2=S)c1", "Potency": "inconclusive: 3.98 µM [inhibitor, partial curve, poor fit]"},
      {"molecule": "Cc1nc(-c2ccc(C(=O)Nc3ccccc3F)cc2)cs1", "Potency": "inconclusive: 28.2 µM [inhibitor, partial curve]"},
      {"molecule": "CN1CC[C@@]2(C)c3cc(O)ccc3N(C)C2O1", "note": "(stereo partly drawn)", "Potency": "inactive"},
      {"molecule": "CC(CO)NC(=O)C1C=C2c3cccc4[nH]cc(c34)CC2N(C)C1", "note": "(stereo not drawn)", "Potency": "inconclusive: 22.4 µM [inhibitor, partial curve, poor fit]"},
      {"molecule": "Cc1ccc(-n2c(CCc3ccccc3)n[nH]c2=S)cc1C", "Potency": "inconclusive: 3.98 µM [inhibitor, partial curve, poor fit]"},
      {"molecule": "O=[N+]([O-])c1ccc(/C=N/n2cn[nH]c2=S)cc1", "Potency": "inconclusive: 14.1 µM [inhibitor, partial curve]"},
      {"molecule": "Cc1ccc(SSc2cc(C)ccc2N)c(N)c1", "Potency": "inconclusive: 35.5 µM [inhibitor, partial curve, poor fit]"},
      {"molecule": "S=c1[nH]ncn1/N=C/c1cccc(Oc2ccccc2)c1", "Potency": "inconclusive: 2.24 µM [inhibitor, partial curve]"},
      {"molecule": "Cc1ccc(C(=O)Nc2ccc(C(=O)O)cc2)cc1S(=O)(=O)N1CCC(C)CC1", "Potency": "inactive"},
      {"molecule": "CN(C)c1cccc2c1c(NS(=O)(=O)c1cn(C)cn1)nn2C", "Potency": "inconclusive: 20 µM [inhibitor, partial curve, poor fit]"},
      {"molecule": "CC1CCCCC1n1c(-c2cccnc2)n[nH]c1=S", "note": "(stereo not drawn)", "Potency": "active: 11.2 µM"},
      {"molecule": "C=CCOc1cccc(CNn2cn[nH]c2=S)c1", "Potency": "inconclusive: 17.8 µM [inhibitor, partial curve]"},
      {"molecule": "CCn1c(C)nc2cc(C(=O)N/N=C/c3ccc(O)c(O)c3O)ccc21", "Potency": "inconclusive: 14.1 µM [inhibitor, partial curve, poor fit]"},
      {"molecule": "O=C1NC(=O)C(=Cc2ccc(OCCOc3ccc([N+](=O)[O-])cc3)cc2)C(=O)N1", "Potency": "inconclusive: 39.8 µM [inhibitor, single point]"},
      {"molecule": "CN(C)c1ccc(Nc2nc(N)c3ccccc3n2)cc1", "Potency": "inconclusive: 11.2 µM [inhibitor, partial curve, poor fit]"},
      {"molecule": "N#Cc1c(-c2ccncc2)c2c([nH]c1=S)CCCC2", "Potency": "inconclusive: 1 µM [inhibitor, full curve, poor fit]"},
      {"molecule": "Cn1c(-c2ccccc2Br)n[nH]c1=S", "Potency": "inconclusive: 15.8 µM [inhibitor, partial curve]"},
      {"molecule": "O=C(O)Cn1cnc2c(=S)nc[nH]c21", "Potency": "inconclusive: 12.6 µM [inhibitor, partial curve, poor fit]"},
      {"molecule": "C[C@@H]1CCCCO[C@H](CN(C)C(=O)C2CCCCC2)[C@@H](C)CN([C@H](C)CO)C(=O)c2cc(N(C)C)ccc2O1", "Potency": "inconclusive: 14.1 µM [inhibitor, partial curve]"},
      {"molecule": "C=C1C(=O)C=C2CN(C(=O)c3ccccc3)[C@@](Cc3ccc(F)cc3)(C(=O)OC)[C@@H]12", "Potency": "inconclusive: 20 µM [inhibitor, partial curve]"},
      {"molecule": "CC(=O)c1ccc(-n2c(CCC(=O)O)ccc2-c2cccs2)cc1", "Potency": "inconclusive: 39.8 µM [inhibitor, single point]"},
      {"molecule": "Cc1ccc(C)c(N2CCN(CCCNC(=O)c3cnn(-c4ccc(F)cc4)c3C3CCN(C(=O)OC(C)(C)C)CC3)CC2)c1", "Potency": "inactive"},
      {"molecule": "Cc1ccccc1-c1cc(-c2ccccc2O)n[nH]1", "Potency": "inconclusive: 44.7 µM [inhibitor, single point]"},
      {"molecule": "Cc1ccc2c(=O)c(C(=O)c3ccc(F)cc3)cn(CC(=O)Nc3ccc4c(c3)OCCO4)c2n1", "Potency": "inactive"},
      {"molecule": "Nc1sc2c(c1C(=O)NC1CC1)CCCC2", "Potency": "inconclusive: 28.2 µM [inhibitor, single point]"},
      {"molecule": "Cc1ccc(-n2c(-c3ccc(Cl)cc3Cl)n[nH]c2=S)cc1", "Potency": "inconclusive: 4.47 µM [inhibitor, partial curve]"},
      {"molecule": "CCc1ccccc1N1CSC2=C(C#N)C(c3cc(OC)c(OC)cc3OC)CC(=O)N2C1", "note": "(stereo not drawn)", "Potency": "active: 10 µM"},
      {"molecule": "C=CCn1c(SCC(=O)NC2CCCC2)nnc1-c1ccccn1", "Potency": "inactive"},
      {"molecule": "C=CCNCCOCCOc1ccc(Cl)cc1C(C)(C)C", "Potency": "inactive"},
      {"molecule": "O=C(Nc1ccc(N2CCCC2)cc1)C(Cl)c1ccccc1", "note": "(stereo not drawn)", "Potency": "inconclusive: 22.4 µM [inhibitor, partial curve, poor fit]"},
      {"molecule": "S=c1[nH]nc(-c2ccco2)n1C1CCCCC1", "Potency": "inconclusive: 14.1 µM [inhibitor, partial curve]"},
      {"molecule": "Cn1c(=O)oc2cc(S(=O)(=O)N3CCC(C(=O)N4CCN(c5ccccc5F)CC4)CC3)ccc21", "Potency": "inactive"},
      {"molecule": "Cc1ccc(/C=C/C(=O)Nc2ccccc2C(N)=O)o1", "Potency": "inconclusive: 39.8 µM [inhibitor, single point]"},
      {"molecule": "CC(=O)SC(C[N+](=O)[O-])c1cn(C(C)=O)c2ccccc12", "note": "(stereo not drawn)", "Potency": "inconclusive: 28.2 µM [inhibitor, partial curve, poor fit]"}
    ]}
  ]
}
